Experimental data from the supplement of paper PMC10126150.
Values marked as one replicate rest on one cluster of the flow cell; about a third of the high ones do not repeat.

Each sequence was assayed on ATP (assay: switch fluorescence ratio, 500 uM ATP over buffer (Cy3 cluster intensity, sum of 5 cycles each) (fold (ratio)); higher = stronger signal-on switching upon ATP binding; sequences stand for … in TCGTCGGCAGCGTCAGATGTGTATAAGAGACAGTTTTTTTTTTTTTTTTTTTTTTTTT…TC). Conditions: aptamer strand: ATP DNA aptamer (quencher-CACCTGGGGGAGTATTGCGGAGGAAGG + anchor), 100 nM annealed; ATP concentration: 500 uM; one replicate.
Method in brief: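 Imaging in selection buffer was followed by imaging after 15 min with 500 uM ATP at 22 °C, for Cy3-labelled switching-strand clusters annealed to 100 nM quencher-labelled ATP aptamer on a modified Illumina MiSeq flow-cell. Five of these buffer/ATP cycles ran, separated by NaOH stripping and re-annealing. The fluorescence ratio per cluster is summed target-cycle over summed buffer-cycle Cy3 intensity, averaged per switch-domain sequence; clusters outside 100-1000 RFU were removed.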
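Further: ATP exposure 15 min at 22 °C before imaging.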

Sequence | switch fluorescence ratio
GGACGAACGA | 1.22
GGACGACCAA | 1.07
GGACGATCAC | 1.64
GGACGCTGGT | 1.09
GGACGGGTTC | 1.02
GGACGGTCCC | 0.969
GGACGGTTCC | 1
GGACGTAGGA | 0.954
GGACGTATGA | 1.04
GGACGTATTC | 1.07
GGACGTGAGG | 0.957
GGACGTTGGG | 0.968
GGACTACCCT | 1.1
GGACTACGTG | 1.13
GGACTATGAG | 0.958
GGACTCCGGT | 1.04
GGACTTACTT | 1.22
GGAGAACTAT | 1.08
GGAGAAGTGT | 1.01
GGAGAATGTG | 0.916
GGAGACAGCA | 1.01
GGAGATATTG | 0.954
GGAGATCAGA | 0.973
GGAGATCTAG | 1.05
GGAGCACAAC | 2.63

Sequence | switch fluorescence ratio
GGAGCATGCG | 1.1
GGAGCCAAGC | 1.02
GGAGCCCATT | 0.982
GGAGCGCACC | 1.01
GGAGCGCGTA | 1.02
GGAGCTTCCT | 2.01
GGAGGACCAG | 0.958
GGAGGAGAC | 1.72
GGAGGGCCTA | 1
GGAGGGCTGG | 1.03
GGAGGGGTGG | 0.982
GGAGGGTAAT | 1.01
GGAGGGTAGG | 1
GGAGGGTATA | 1.02
GGAGGTTACG | 0.992
GGAGGTTCTG | 0.995
GGAGGTTTCA | 0.978
GGAGGTTTTT | 0.965
GGAGTAAAGT | 1.12
GGAGTAAGCC | 1.05
GGAGTAAGGG | 1.03
GGAGTACATA | 1.01
GGAGTACGAG | 0.981
GGAGTATTGT | 1.04
GGAGTCCTGC | 0.921

Sequence | switch fluorescence ratio
GGAGTCGCTA | 0.981
GGAGTGTTTG | 0.953
GGAGTTAGCT | 0.971
GGAGTTTGCT | 0.969
GGAGTTTTCA | 0.979
GGATAAAGCA | 1.07
GGATAAAGGG | 0.971
GGATAACAAT | 0.981
GGATAACTAC | 1.08
GGATAAGCTG | 1.03
GGATAATCTA | 1
GGATAATTAT | 0.979
GGATACTTAG | 1.03
GGATAGACGA | 1
GGATATCGTC | 1.01
GGATATGCTA | 1.04
GGATATGGCT | 0.992
GGATATGTTT | 1.04
GGATATTATG | 1.04
GGATATTGTT | 0.951
GGATCAATAT | 1.03
GGATCAGCCG | 0.919
GGATCCAGAG | 0.974
GGATCCTCTA | 0.982
GGATCGTGTA | 0.999

Sequence | switch fluorescence ratio
GGATCTGGAG | 1.06
GGATGAAAAA | 0.987
GGATGAAGT | 0.941
GGATGAGTAC | 0.865
GGATGCAACT | 1.01
GGATGGGATC | 0.944
GGATGGTGAA | 0.992
GGATGGTTAA | 0.965
GGATGGTTAT | 0.966
GGATGTAATA | 0.999
GGATGTCAAC | 1.03
GGATGTGATG | 0.986
GGATTAACGC | 1.02
GGATTAGCTA | 1.03
GGATTAGTTC | 0.956
GGATTCGCGT | 1.03
GGATTCTCAG | 0.98
GGATTGAGCT | 0.999
GGATTGCTGC | 0.909
GGATTTCGTT | 0.942
GGATTTTACC | 1.03
GGATTTTCGG | 0.98
GGCAAAAGCG | 1.01
GGCAACGTAG | 0.995
GGCAAGGATT | 1.03

Sequence | switch fluorescence ratio
GGCAATAACA | 1.12
GGCAATGTCA | 1
GGCAATTCTG | 1.02
GGCACAACTT | 1
GGCACAGTTA | 0.993
GGCACCATGG | 0.984
GGCACCCATG | 0.959
GGCACCTCAT | 1.03
GGCACGGTTT | 1.03
GGCACGTTT | 0.988
GGCAGAACAT | 1.05
GGCAGAGCCG | 0.952
GGCAGAGCTT | 0.981
GGCAGATCAA | 0.998
GGCAGCAGGG | 1.03
GGCAGGGATA | 1
GGCAGGGTTA | 0.992
GGCATACTCT | 2.16
GGCATCAATG | 1.01
GGCATCTCC | 1.1
GGCATGCGGC | 1.03
GGCATGCTAT | 0.99
GGCATGTAAC | 1.12
GGCCAAAGCT | 0.964
GGCCAAGTAA | 1.11

Sequence | switch fluorescence ratio
GGCCACGAGT | 1
GGCCATAGTA | 1
GGCCCAATTT | 1.01
GGCCCAGTGC | 1.47
GGCCCATCTT | 0.939
GGCCCTGGAT | 0.997
GGCCGAGTGT | 0.981
GGCCGATGGA | 0.996
GGCCGATGGT | 0.945
GGCCGATTTC | 1.01
GGCCGGAAGT | 0.99
GGCCGGGCTC | 0.98
GGCCGTAGTG | 1
GGCCGTGTTG | 1.02
GGCCTCCTTT | 1.02
GGCCTGCTGA | 1.09
GGCCTGGCTG | 0.973
GGCCTTTAAA | 1.06
GGCCTTTTAT | 0.986
GGCCTTTTGG | 0.941
GGCGAAATGA | 0.988
GGCGAACGTT | 0.976
GGCGAACTAG | 1.04
GGCGAGGTCT | 1.03
GGCGATCTTC | 1.02

Sequence | switch fluorescence ratio
GGCGCAGTGC | 2.89
GGCGCATCCT | 1.02
GGCGCCACTG | 0.956
GGCGCCTA | 0.982
GGCGCCTGTG | 1
GGCGCGAAAC | 2.27
GGCGCGCAAG | 1.13
GGCGGACTAC | 1.24
GGCGGCACCG | 1.06
GGCGGCGTTT | 1
GGCGGGTGAT | 1.37
GGCGGGTGCC | 1.02
GGCGGGTTAT | 1.24
GGCGGTAACA | 0.987
GGCGGTGCGG | 1
GGCGGTTAAA | 1.01
GGCGGTTACG | 0.997
GGCGTACGTG | 1.04
GGCGTACTGC | 1.01
GGCGTATCGT | 1.01
GGCGTATTAC | 1.29
GGCGTCAAAC | 0.991
GGCGTCCCAA | 0.996
GGCGTCCCAG | 1.03
GGCGTCCGTG | 1.01

Sequence | switch fluorescence ratio
GGCGTCGGA | 0.939
GGCGTCTGTA | 0.97
GGCGTCTTCG | 0.997
GGCGTGATCG | 1.02
GGCGTGATGA | 1.03
GGCGTGTCTA | 1.01
GGCGTTGAA | 0.982
GGCGTTGTAG | 1.06
GGCTAAAGAC | 1.05
GGCTAAAGG | 0.967
GGCTCACTAT | 1.03
GGCTCCACTG | 1.06
GGCTCCGAGC | 1.07
GGCTCCGGGT | 1.12
GGCTCGTCAT | 0.968
GGCTCTCCTA | 0.991
GGCTGAACAA | 1.02
GGCTGACAA | 1.01
GGCTGGATTA | 1.01
GGCTGGCCTC | 0.965
GGCTGGTACA | 0.995
GGCTGTCCCG | 0.964
GGCTGTCTTC | 1.01
GGCTGTTGTG | 0.995
GGCTTAAACA | 0.956
